Sequences with one replicate were seen in a single cluster, so their values are uncertain.
Each sequence was assayed on ATP (assay: switch fluorescence ratio, 500 uM ATP over buffer (Cy3 cluster intensity, sum of 5 cycles each) (fold (ratio)); higher = stronger signal-on switching upon ATP binding; sequences stand for … in TCGTCGGCAGCGTCAGATGTGTATAAGAGACAGTTTTTTTTTTTTTTTTTTTTTTTTT…TC). Settings: aptamer strand: ATP DNA aptamer (quencher-CACCTGGGGGAGTATTGCGGAGGAAGG + anchor), 100 nM annealed; ATP concentration: 500 uM; one replicate.
Method in brief: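 After annealing to 100 nM quencher-labelled ATP aptamer, Cy3-labelled switching-strand clusters on a modified Illumina MiSeq flow-cell were imaged in selection buffer. A second image followed after 15 min with 500 uM ATP at 22 °C, and five such buffer/ATP cycles were done, each separated by NaOH stripping and re-annealing. The fluorescence ratio, averaged per switch-domain sequence, is summed target-cycle over summed buffer-cycle Cy3 intensity per cluster, with clusters outside 100-1000 RFU excluded.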
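Further: ATP exposure 15 min at 22 °C before imaging.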

Sequence | switch fluorescence ratio
ATCGGTACAT | 0.997
ATCGGTTAGA | 0.964
ATCGTAAAAC | 1.21
ATCGTAAAGG | 0.958
ATCGTACATC | 1.1
ATCGTACCGG | 1.02
ATCGTACGAC | 1.03
ATCGTAGCGC | 1.27
ATCGTGCGAG | 0.94
ATCGTTAGCT | 1.01
ATCGTTGGTC | 0.937
ATCTAAGCTT | 1.06
ATCTAATGTG | 0.968
ATCTACAGCA | 1.09
ATCTACGTAT | 1.16
ATCTACTCGC | 1.11
ATCTAGTAGG | 0.973
ATCTATAGGA | 0.958
ATCTATTTCC | 1.02
ATCTCAGCAT | 1.92
ATCTCAGCTT | 1.03
ATCTCATAGC | 0.966
ATCTCGAATC | 1.05
ATCTCGAGAC | 1.01
ATCTCGAGTA | 1.01

Sequence | switch fluorescence ratio
ATCTCTCTGA | 1.02
ATCTGCGTCC | 1.05
ATCTGCTG | 1.02
ATCTGGTAAG | 1
ATCTGGTAGC | 0.952
ATCTGTACGT | 0.948
ATCTGTCTT | 1
ATCTGTGTAA | 0.969
ATCTTATGCA | 0.962
ATCTTCCATG | 1.46
ATCTTGACCT | 1.3
ATCTTGGGAG | 0.976
ATCTTGGGCG | 0.982
ATCTTGTAGT | 1.02
ATCTTTAGAA | 1.03
ATCTTTCCAA | 1.02
ATCTTTGGT | 0.967
ATCTTTGTAT | 1.02
ATCTTTTAGT | 1.03
ATCTTTTTAA | 1
ATGAAACATG | 1.04
ATGAAAGATA | 1.01
ATGAACTATT | 0.984
ATGAAGTCTG | 1.02
ATGAAGTGG | 1

Sequence | switch fluorescence ratio
ATGAATCTAG | 0.963
ATGAATGACT | 0.997
ATGACCGTTC | 1.04
ATGACGGCAC | 1.3
ATGACTTAGG | 1
ATGACTTATA | 1.03
ATGAGCAGTT | 0.976
ATGAGCCAGC | 1.03
ATGAGCCATC | 1.01
ATGAGCCCTC | 1.03
ATGAGCTGA | 1.01
ATGAGGAGCA | 0.963
ATGAGGCGCG | 0.946
ATGAGGCGGC | 1.06
ATGAGGGTGT | 1.11
ATGAGTACTT | 1.01
ATGAGTGTCT | 0.969
ATGATACAAA | 1.07
ATGATAGAGC | 0.937
ATGATCTACA | 0.985
ATGATCTATC | 0.971
ATGATGGGA | 1.01
ATGATTAGGG | 0.933
ATGATTCTG | 1.02
ATGATTGGTG | 1.03

Sequence | switch fluorescence ratio
ATGCAATTGC | 1.03
ATGCACTACA | 1.06
ATGCAGAATA | 1.01
ATGCAGGTTT | 1.01
ATGCAGTGAC | 1.11
ATGCAGTTAC | 1.59
ATGCATCACG | 0.961
ATGCATCTAG | 0.998
ATGCATGAA | 0.982
ATGCCCATGA | 0.958
ATGCCCCCGT | 1
ATGCCCGCGG | 1
ATGCCGATGG | 0.967
ATGCCGGTGA | 0.998
ATGCCGTCGT | 1.02
ATGCCTGATC | 1.08
ATGCCTGGAC | 1.06
ATGCCTGTGG | 0.999
ATGCGAACAC | 1.16
ATGCGAAGCC | 1.03
ATGCGAGTTT | 0.949
ATGCGATATG | 1.03
ATGCGATTTT | 1.13
ATGCGCCTAT | 1.04
ATGCGGCCTT | 0.978
